Source: patent publication US5783557A, “THF-γ2 analogs and pharmaceutical compositions comprising them” (Yeda Research and Development Company Ltd at Weizmann …, priority 1993, dated 1998)
Not every detail of the peptide structures is certain; ends, links or a residue may be inferred. No end group written: not given here.

What was measured:
Format in all cases: cell-based
mouse spleen cells = experiment: ConA-induced IL-2 production; design: key: +++: strong enhancement, as THF-γ2; ++ and +: medium and weak enhancement, lower than THF-γ2; ++ and +: medium and weak enhancement, lower than THF-γ2; --no activity; conditions: graded against THF-γ2; Example 1, section 1.1
Protocol: 1.1. ConA-Induced IL-2 Production
In this bioassay, the effect of THF-γ2 and its analogs in enhancing the secretion of ConA-induced IL-2 from murine spleen cells is determined.
1.1.1. Preparation of cells and preincubation with THF-γ2. Pooled spleen cells (10^7 cell/ml) from five female C3B6F1 (C3HeB/FeJ×C57BL/6J) mice (obtained from Jackson Labs, U.S.A.) aged 6-8 weeks are seeded in 24-well plates (Costar, Cambridge, Mass, U.S.A.). The cells are prepared in medium RPMI-1640 supplemented with penicillin (100 u/ml), streptomycin (100 μg/ml), 2 mM glutamine, 50 μM 2-mercaptoethanol (2-ME) and 20 mM HEPES. THF-γ2 in various concentrations in phosphate buffered saline (PBS), is added in 20 μl aliquots, while control cultures receive 20 μl PBS. The cell cultures are incubated for 20 h in a humidified incubator of 5% CO2 /95% air and 37° C.
1.1.2. Induction of IL-2. ConA (Concanavalin A, ConA, 3×crystalline, Bio-Makor, Ness-Ziona, Israel) is added to the wells in 1 ml fresh medium (as in 1.1.1 above) at suboptimal concentration (1-2.5 μ/ml). After 3 h the plates are centrifuged at 1200 rpm (Sorvall GLC-3 centrifuge), the supernatant is removed and replaced by 1 ml of fresh medium (as in 1.1.1 above) and the cultures are further incubated for 20 h. The plates are then centrifuged, the supernatants are collected and kept at -20° C.
1.1.3. Assay on CTL-D, an IL-2 dependent T cell line. Supernatants from 1.1.2 above (50 μl) are added at serial two fold dilutions (1:2-1:64), in triplicate, to U-bottomed microwells (Greiner, Germany) containing 1×10^4 CTL-D cells in 50 μl RPMI-1640 (as in 1.1.1 above) supplemented with 1 mM sodium pyruvate, 1 mM non-essential amino acids and 10% FCS (Beth-Haemek, Israel). After incubation of 48 h at 37° C./5% CO2, the proliferation is assessed by the MTT colorimetric assay (T. Mosmann, J. Immunol. Methods 65: 55-63, 1983). Results are expressed in units/ml calculated using a standard murine IL-2 preparation (according to S. Gillis et al., J. Immunol. 120: 2027, 1978).

[1] = tested on: GM-CFC from mouse bone marrow; experiment: Effect on GM-CFC from mouse bone marrow; design: key: +++: strong enhancement, as THF-γ2; ++ and +: medium and weak enhancement, lower than THF-γ2; ++ and +: medium and weak enhancement, lower than THF-γ2; --no activity; conditions: graded against THF-γ2; Example 1, section 1.2
Protocol: 1.2. Effect of THF-γ2 on GM-CFC From Mouse Bone Marrow. In this second bioassay, the effect of THF-γ2 and its analogs in the enhancement of the number of colonies of GM-CFC in the presence of growth factors is determined. 1.2.1. […] Tibia and femur were removed from BALB/c female mice (6-8 weeks old). The tip of the bone was cut and DMEM with 2.5% FCS was flushed into the bone using a 1 ml syringe with a 26 G needle. This procedure was repeated twice, the cells were then washed in medium and counted in the presence of trypan blue. 1.2.2 Preincubation with THF-γ2. Bone marrow cells suspension was prepared in DMEM with 2.5% FCS at a concentration of 15×10^6 /3.0 ml. THFγ2 diluted in DMEM was added in 20 μl aliquots, control cells received 20 μl DMEM. Cell suspensions in conical tissue culture tubes were incubated at 37° C./8% CO2 for 1 h. Cells were then collected, washed and counted in trypan blue. Cell suspensions were adjusted at 1×10^6 /ml. 1.2.3. GM-CFC assay. Bone marrow cells (4×10^5) are suspended in methylcellulose (0.8%), FCS (20%) and conditioned medium of 14FIL3 CB6 cell line (5%) in a total volume of 4 ml of DMEM. After vigorous mixing, the suspension is seeded into 30 mm diameter plates with the aid of a 3.0 ml syringe (21G needle, in triplicate). The small plates are placed in a large plate (20 cm) alongside one open, small plate containing water, in order to maintain high humidity, and incubated at 37° C. in an 8% CO2 incubator for 7 days. Colonies are counted using an inverted microscope at low magnification.

[2] = tested on: mouse spleen cells and/or GM-CFC of mouse bone marrow; experiment: Biological activity of analogs in the Example 1 bioassays (IL-2 and/or GM-CFC); conditions: summary of Table 3

DGPKFL [des-L^1,E^2 -THF-γ2, Asp-Gly-Pro-Lys-Phe-Leu]
IL-2: Enhancement of ConA induced IL2 production in mouse spleen cells (mouse spleen cells): +
GM-CFC: Enhancement of the number of GMCFC from mouse bone marrow [1]: -
biological activity (IL-2 production and/or GM-CFC number), in words [2]: active

EDGPKFL [des-L^1 -THF-γ2, Glu-Asp-Gly-Pro-Lys-Phe-Leu]
IL-2: Enhancement of ConA induced IL2 production in mouse spleen cells (mouse spleen cells): ++
GM-CFC: Enhancement of the number of GMCFC from mouse bone marrow [1]: ++
biological activity (IL-2 production and/or GM-CFC number), in words [2]: active

LEDGPKFLAYALEDGPKFL [(THF-γ)-A-Y-A-(THF-γ2), Leu-Glu-Asp-Gly-Pro-Lys-Phe-Leu-Ala-Tyr-Ala-Leu-Glu-Asp-Gly-Pro-Lys-Phe-Leu]
IL-2: Enhancement of ConA induced IL2 production in mouse spleen cells (mouse spleen cells): +++
GM-CFC: Enhancement of the number of GMCFC from mouse bone marrow [1]: +++
biological activity (IL-2 production and/or GM-CFC number), in words [2]: Particularly active

LEDGPKFQ [Q^8 -THF-γ2]
IL-2: Enhancement of ConA induced IL2 production in mouse spleen cells (mouse spleen cells): +
GM-CFC: Enhancement of the number of GMCFC from mouse bone marrow [1]: -

LEDGPKHL [H^7 -THF-γ2, Leu-Glu-Asp-Gly-Pro-Lys-His-Leu]
IL-2: Enhancement of ConA induced IL2 production in mouse spleen cells (mouse spleen cells): +
GM-CFC: Enhancement of the number of GMCFC from mouse bone marrow [1]: ++

LEDGPKNL [N^7 -THF-γ2]
IL-2: Enhancement of ConA induced IL2 production in mouse spleen cells (mouse spleen cells): -
GM-CFC: Enhancement of the number of GMCFC from mouse bone marrow [1]: +

LEDGPKSL [S^7 -THF-γ2, Leu-Glu-Asp-Gly-Pro-Lys-Ser-Leu]
IL-2: Enhancement of ConA induced IL2 production in mouse spleen cells (mouse spleen cells): ++
GM-CFC: Enhancement of the number of GMCFC from mouse bone marrow [1]: -

LEDGPKVL [V^7 -THF-γ2, Leu-Glu-Asp-Gly-Pro-Lys-Val-Leu]
IL-2: Enhancement of ConA induced IL2 production in mouse spleen cells (mouse spleen cells): ++
GM-CFC: Enhancement of the number of GMCFC from mouse bone marrow [1]: +

LEDGPKYL [Y^7 -THF-γ2]
IL-2: Enhancement of ConA induced IL2 production in mouse spleen cells (mouse spleen cells): +
GM-CFC: Enhancement of the number of GMCFC from mouse bone marrow [1]: -

LEDGPNFL [N^6 -THF-γ2]
IL-2: Enhancement of ConA induced IL2 production in mouse spleen cells (mouse spleen cells): +
GM-CFC: Enhancement of the number of GMCFC from mouse bone marrow [1]: -

LEDGPYFL [Y^6 -THF-γ2]
IL-2: Enhancement of ConA induced IL2 production in mouse spleen cells (mouse spleen cells): +
GM-CFC: Enhancement of the number of GMCFC from mouse bone marrow [1]: -

LEDGQKFL [Q^5 -THF-γ2, Leu-Glu-Asp-Gly-Gln-Lys-Phe-Leu]
IL-2: Enhancement of ConA induced IL2 production in mouse spleen cells (mouse spleen cells): ++
GM-CFC: Enhancement of the number of GMCFC from mouse bone marrow [1]: -

LEDGRKFL [R^5 -THF-γ2, Leu-Glu-Asp-Gly-Arg-Lys-Phe-Leu]
IL-2: Enhancement of ConA induced IL2 production in mouse spleen cells (mouse spleen cells): ++
GM-CFC: Enhancement of the number of GMCFC from mouse bone marrow [1]: +

LEDGSKFL [S^5 -THF-γ2, Leu-Glu-Asp-Gly-Ser-Lys-Phe-Leu]
IL-2: Enhancement of ConA induced IL2 production in mouse spleen cells (mouse spleen cells): +++
GM-CFC: Enhancement of the number of GMCFC from mouse bone marrow [1]: -

LEDSPKFL [S^4 -THF-γ2]
IL-2: Enhancement of ConA induced IL2 production in mouse spleen cells (mouse spleen cells): +
GM-CFC: Enhancement of the number of GMCFC from mouse bone marrow [1]: -

LEDVPKFL [V^4 -THF-γ2, Leu-Glu-Asp-Val-Pro-Lys-Phe-Leu]
IL-2: Enhancement of ConA induced IL2 production in mouse spleen cells (mouse spleen cells): +
GM-CFC: Enhancement of the number of GMCFC from mouse bone marrow [1]: +

LEDYPKFL [Y^4 -THF-γ2, Leu-Glu-Asp-Tyr-Pro-Lys-Phe-Leu]
IL-2: Enhancement of ConA induced IL2 production in mouse spleen cells (mouse spleen cells): +
GM-CFC: Enhancement of the number of GMCFC from mouse bone marrow [1]: +

LEFGPKFL [F^3 -THF-γ2]
IL-2: Enhancement of ConA induced IL2 production in mouse spleen cells (mouse spleen cells): +
GM-CFC: Enhancement of the number of GMCFC from mouse bone marrow [1]: -

LEKEPKFL [K^3,E^4 -THF-γ2]
IL-2: Enhancement of ConA induced IL2 production in mouse spleen cells (mouse spleen cells): -
GM-CFC: Enhancement of the number of GMCFC from mouse bone marrow [1]: +

LENGQKFD [N^3,Q^5,D^8 -THF-γ2, Leu-Glu-Asn-Gly-Gln-Lys-Phe-Asp]
IL-2: Enhancement of ConA induced IL2 production in mouse spleen cells (mouse spleen cells): ++
GM-CFC: Enhancement of the number of GMCFC from mouse bone marrow [1]: -

LERGPKFL [R^3 -THF-γ2, Leu-Glu-Arg-Gly-Pro-Lys-Phe-Leu]
IL-2: Enhancement of ConA induced IL2 production in mouse spleen cells (mouse spleen cells): ++
GM-CFC: Enhancement of the number of GMCFC from mouse bone marrow [1]: ++

LQDGPKFL [Q^2 -THF-γ2]
IL-2: Enhancement of ConA induced IL2 production in mouse spleen cells (mouse spleen cells): +
GM-CFC: Enhancement of the number of GMCFC from mouse bone marrow [1]: -

LSDGPKFL [S^2 -THF-γ2, Leu-Ser-Asp-Gly-Pro-Lys-Phe-Leu]
IL-2: Enhancement of ConA induced IL2 production in mouse spleen cells (mouse spleen cells): ++
GM-CFC: Enhancement of the number of GMCFC from mouse bone marrow [1]: ++

MEDSPKFV [M^1,S^4,V^8 -THF-γ2, Met-Glu-Asp-Ser-Pro-Lys-Phe-Val]
IL-2: Enhancement of ConA induced IL2 production in mouse spleen cells (mouse spleen cells): ++
GM-CFC: Enhancement of the number of GMCFC from mouse bone marrow [1]: -

TEAEPKFI [T^1,A^3,E^4,I^8 -THF-γ2]
IL-2: Enhancement of ConA induced IL2 production in mouse spleen cells (mouse spleen cells): +
GM-CFC: Enhancement of the number of GMCFC from mouse bone marrow [1]: -

YLEDGPKFL [Y^-1 -THF-γ2, Tyr-Leu-Glu-Asp-Gly-Pro-Lys-Phe-Leu]
IL-2: Enhancement of ConA induced IL2 production in mouse spleen cells (mouse spleen cells): ++
GM-CFC: Enhancement of the number of GMCFC from mouse bone marrow [1]: ++

YLEDGPKFLI [Y^-1,I^9 -THF-γ2, Tyr-Leu-Glu-Asp-Gly-Pro-Lys-Phe-Leu-Ile]
IL-2: Enhancement of ConA induced IL2 production in mouse spleen cells (mouse spleen cells): ++
GM-CFC: Enhancement of the number of GMCFC from mouse bone marrow [1]: ++
